About 800 (1.6%) of roughly 50,000 compounds showed an effect of 50% or more. Some of the results follow.

The assay concerns the target Bcl-2-like protein 10 (Homo sapiens) (UniProt Q9HD36). As to the kind of experiment: TR3 peptide-Bcl-B binding displacers, biochemical primary FP assay, phenotype converters (AID 1240).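 Note: 0% = Bcl-B with tracer peptide and DMSO and 100% = tracer peptide lacking Bcl-B.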 To be noted: GST-Bcl-B / FITC-TR3 peptide fluorescence polarization; stronger effect = higher value; compound at 3.75 mg/L. Background: Fluorescence polarisation rises when a labelled molecule tumbles more slowly, as on binding a larger partner.
Chain of UniProt Q9HD36 (Q9HD36 whole entry, looked up): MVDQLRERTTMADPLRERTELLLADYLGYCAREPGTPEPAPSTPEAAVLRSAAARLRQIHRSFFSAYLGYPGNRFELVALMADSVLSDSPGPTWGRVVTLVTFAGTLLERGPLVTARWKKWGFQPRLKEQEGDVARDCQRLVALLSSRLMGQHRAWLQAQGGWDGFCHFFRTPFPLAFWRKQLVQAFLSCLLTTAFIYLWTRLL
On to `CCC(Oc1ccccc1)C(=O)Nc1ccc(C)c(Cl)c1` (stereo unspecified), for which the displacement was determined as 27.4%.

For `CN(C)S(=O)(=O)c1ccc(C(=O)Nc2cc(Cl)cc(Cl)c2)cc1`, the displacement was found to be 15.1%.

Take `O=C1NC(=O)/C(=C/c2ccccc2OCc2ccccc2Cl)S1`: the displacement was 9.1%.

`Cc1ccccc1OCC(=O)Nc1cc(Sc2ccccc2)cc([N+](=O)[O-])c1`: the displacement was found to be 6.6%.

Take `O=C(O)CSc1nc2ccccc2c(=O)n1-c1ccccc1`: the displacement came out at 6.2%.

`O=C(Nc1ccc(OC(F)(F)F)cc1)c1ccc(Br)cc1`: the displacement came to 4.8%.

On to `CN1CCN(C(=O)c2cc(-c3ccccc3)nc3ccccc23)CC1`, for which the displacement turned out to be 6.3%.

Turning to `CCC1CCc2c(sc(NC(=O)c3c(Cl)cccc3Cl)c2C(N)=O)C1` (stereo unspecified), the displacement amounted to 5.8%.

For `CC(=O)/C(C(=Nc1ccccc1)Nc1ccccc1)=C(/O)c1ccccc1`, the displacement amounted to 3.8%.

Turning to `COc1cccc(/C=N/Nc2nc(-c3ccc(C)cc3)nc3ccccc23)c1O`, the displacement stood at 3.4%.

For `C=CCNC(=O)/C=C/c1ccc(OCC)c(OC)c1`, the displacement turned out to be 0.6%.

Take `Cc1cccc(NC(=O)C2C3C=CC(C3)C2C(=O)O)n1` (stereo unspecified): the displacement was 8.4%.

On to `Nc1cccc(C(=O)Nc2ccc(N)cc2Cl)c1`, for which the displacement came to 5.3%.

Consider `CCOc1cc(/C=C2\SC(=S)N(c3cccc(C)c3)C2=O)ccc1O`, for which the displacement came to 7.4%.

Consider `O=C(/C=C\Nc1ccc2c(c1)OCO2)c1ccc2c(c1)OCO2`, for which the displacement is 104%.

`Cc1occc1C(=O)N/N=C/c1ccc(O)cc1O`: the displacement came out at 78.5%.

With `CC(C)(C)OC(=O)NC(Cc1c[nH]c2ccccc12)C(=O)N1CCOCC1` (stereo unspecified), the displacement is -21.6%.

On to `COc1ccc([N+](=O)[O-])cc1-c1ccc(/C=N\Nc2ccc([N+](=O)[O-])cn2)o1`, for which the displacement is -5.4%.

With `Cc1ccc(N2CC(C(=O)Nc3cccc(C)c3)CC2=O)cc1` (stereo unspecified), the displacement was -6.3%.

As for `Cn1ccnc1SCC(=O)c1ccc(O)c(O)c1`, the displacement was 3.5%.

With `Cc1cccc(Nc2nc3c(s2)CCCC3)c1`, the displacement was determined as 6.1%.

In the case of `O=C1c2ccc([N+](=O)[O-])cc2C(=O)N1c1ccc(Cl)cn1`, the displacement is -2.3%.

For `O/N=C(/CSc1nc2ccccc2s1)c1ccccc1`, the displacement is -4.5%.

`O=C(Oc1nn(-c2ccccc2)cc1C(=O)c1ccccc1)c1ccccc1`: the displacement is 12.9%.

`CCOc1ccccc1N(CC(=O)Nc1ccc(C)c(C)c1)S(=O)(=O)c1ccccc1`: the displacement was 0.4%.

For the compound `CC(C)OC(=O)c1cc2nc(-c3cccs3)cc(C(F)(F)F)n2n1`, the displacement is 14.1%.

In the case of `COc1ccc(OC)c(Cn2c(O)c(/C=C3\C=CC=N3)c(=O)[nH]c2=O)c1`, the displacement came out at 18.1%.

As to `N#CSC(C#N)Cc1cccc([N+](=O)[O-])c1` (stereo unspecified), the displacement came out at 1.6%.

As for `C=CCOC(=O)C1=C(C)NC2=C(C(=O)CCC2)C1c1ccccc1Cl` (stereo unspecified), the displacement came to 3.7%.

`CC1=NN(c2nc(-c3ccc(Br)cc3)cs2)C(=O)C1C` (stereo unspecified): the displacement was -15.3%.

Consider `CCc1ccc(NC(=O)CSc2nc3ccc(N)cc3s2)cc1`, for which the displacement came to 1.9%.

For the compound `O=C1/C(=C\c2ccco2)SC(=S)N1Cc1ccccc1`, the displacement is 39.3%.

With `CCn1c(NC(=O)c2ccc(Cl)cc2)nc2ccccc21`, the displacement turned out to be 11.9%.

As for `CN(C)c1ccc(/C=C(\NC(=O)c2ccccc2)C(=O)Nc2ccc(Cl)cc2)cc1`, the displacement is -4.5%.

For `O=P(c1ccccc1)(c1ccccc1)C(O)c1ccco1` (stereo unspecified), the displacement was -0.1%.

In the case of `Cc1cc(Cl)ccc1NC(=O)CN(c1cccc([N+](=O)[O-])c1)S(=O)(=O)c1ccccc1`, the displacement was 5%.

On to `Cc1ccc(NCC(=O)N/N=C\c2ccc(OC(=O)c3ccccc3Cl)cc2)cc1`, for which the displacement was -15%.

For `COc1cc(/C=C2\C(=O)NN(c3ccccc3)C2=O)cc(OC)c1OC`, the displacement was -6.6%.

Consider `O=S(=O)(Nc1ccc(Cl)cn1)c1ccc(Cl)cc1`, for which the displacement is -15.6%.

Turning to `O=P(CCNCc1ccco1)(c1ccccc1)c1ccccc1`, the displacement was -3.3%.

In the case of `O=C(CCCOc1ccc(Cl)cc1Cl)Nc1ccc2c(c1)COC2=O`, the displacement is -11.3%.

As to `COc1ccc(C(=O)/C=C/c2cccc(OC)c2)cc1`, the displacement worked out at 7.5%.

With `COc1ccc(C(=O)Nc2ccccc2)cc1NC(=O)c1ccccc1C`, the displacement worked out at 0%.

On to `CCc1ccc(-c2csc(N)n2)cc1`, for which the displacement was -3.2%.

As for `COc1cc(C(=O)N2CCN(C3CCCCCC3)CC2)cc(OC)c1OC`, the displacement is -1.6%.

`O=C(c1cc(F)c(F)cc1Cl)N1CCCC1`: the displacement was 0%.

For the compound `CC(=O)CC(=O)Nc1ccc(Cl)c(C(F)(F)F)c1`, the displacement is 14.3%.

Regarding `COc1ccccc1/C=C/C=N/NC(=O)c1cc(C)[nH]n1`, the displacement is 2.8%.

Take `O=C(/C=C/c1cccs1)c1c(-c2ccccc2)c2cc(Cl)ccc2[nH]c1=O`: the displacement worked out at 15.4%.

Consider `CC1CCc2c(sc(NC(=O)c3ccccc3Cl)c2C(=O)NCc2ccco2)C1` (stereo unspecified), for which the displacement was -13.2%.

Consider `COC(=O)C1=C(C)N(c2ccccc2F)C(=O)/C1=C\c1ccccc1F`, for which the displacement turned out to be 112%.

Turning to `COc1cccc(OC)c1C(=O)NCC1CCCO1` (stereo unspecified), the displacement is -17.2%.

As for `CCc1nccn1S(=O)(=O)c1cc(Cl)ccc1OC`, the displacement was -5.5%.

On to `O=C1CC(N2CCN(c3cccc(Cl)c3)CC2)C(=O)N1c1cccc(Cl)c1` (stereo unspecified), for which the displacement worked out at 2.7%.

Consider `COc1ccc(Cl)cc1C(=O)N1CCN(c2ccc([N+](=O)[O-])cc2)CC1`, for which the displacement came to 7.5%.

Regarding `COc1cccc(NC(=O)c2cc3ccccc3cc2OC)c1`, the displacement is 10.2%.

As for `CN(C1CCS(=O)(=O)C1)S(=O)c1ccc2ccccc2c1` (stereo unspecified), the displacement is -5.8%.

As for `Cc1ccc(NC(=O)/C=C/c2ccco2)c([N+](=O)[O-])c1`, the displacement amounted to 1.7%.

Turning to `COc1cc(C(=O)Nc2cc(-c3nc4ncccc4o3)ccc2C)cc(OC)c1OC`, the displacement is -2.2%.

With `COc1ccc(N2C(=O)NC(=O)/C(=C/c3cccc(OCc4ccccc4F)c3)C2=O)cc1`, the displacement was 0.1%.

Turning to `Cc1ccc(C(=O)N/C(=C/c2ccc(Br)cc2)C(=O)N2CCOCC2)cc1`, the displacement was -2.1%.

Take `CN1CCN(CCOCCOc2ccc(Br)cc2)CC1`: the displacement was -14.9%.

With `O=C(/C=C/c1ccc([N+](=O)[O-])cc1)Nc1cccc(C(F)(F)F)c1`, the displacement is 2.7%.

`COC(=O)C1=C(C)NC(=O)N(C(C)=O)C1c1cccs1` (stereo unspecified): the displacement amounted to 10.3%.

For `CC(C)(C)NC(=O)C(=O)N/N=C/c1ccc(Cl)cc1Cl`, the displacement stood at 6.8%.

On to `COCCNC(=S)Nc1ccc(Cl)cc1Cl`, for which the displacement was -14.8%.

As for `O=C(Cc1ccc(Cl)cc1)Nc1ccc(-c2nc3ccccc3o2)cc1`, the displacement stood at 13.4%.

Turning to `CN(C)c1cccc(C(=O)NCc2ccc(S(N)(=O)=O)cc2)c1`, the displacement was determined as 1.7%.

Turning to `CCOc1cc(C2Nc3cc(C)c(C)cc3NC3=C2C(=O)CC(C)(C)C3)ccc1OC(=O)C1CC1` (stereo unspecified), the displacement was -9.2%.

Take `CN(C)c1cccc(C(=O)N2CCc3ccccc3C2)c1`: the displacement is 9.1%.

Consider `Cc1c(NC(=O)c2ccc(S(=O)(=O)N3CC(C)OC(C)C3)cc2)c(=O)n(-c2ccccc2)n1C` (stereo unspecified), for which the displacement is -14.2%.

Turning to `Cc1cc(C)cc(CSCC(=O)Nc2ccc(C(C)C)cc2)c1`, the displacement is -3.1%.

Turning to `CC(N=C1NS(=O)(=O)c2ccccc21)c1ccccc1` (stereo unspecified), the displacement turned out to be 9.5%.

As to `O=C(CSc1nsc(SCC(=O)Nc2ccc(F)cc2)n1)Nc1ccc(F)cc1`, the displacement is -8.7%.

As to `Cc1ccc(C2CC(C(F)(F)F)n3nc(C(=O)NC(C)C)cc3N2)cc1` (stereo unspecified), the displacement turned out to be 5.1%.

As for `CCOc1ccc(N2C(=O)/C(=C/c3ccc(-c4ccccc4C(=O)O)o3)C(=O)NC2=S)cc1`, the displacement worked out at 6.8%.

As to `CCOc1ccc(C(=O)NCCNc2ccc([N+](=O)[O-])cc2)cc1Cl`, the displacement was -5%.

For the compound `N#Cc1c(NCc2ccccc2)ncc2c1Nc1ccccc1C2`, the displacement is 112%.

As for `Cc1cc(C)c(NC(=O)COc2ccccc2[N+](=O)[O-])c(C)c1`, the displacement was -9.6%.

Take `O=C(CSc1nc2ccccc2[nH]1)Nc1nc2c(s1)CCCC2`: the displacement is -5.1%.

As for `CCOC(=O)c1ccc(NC(=O)CN(c2ccccc2)S(=O)(=O)c2ccccc2[N+](=O)[O-])cc1`, the displacement was 1.2%.

With `CN(C)c1ccc(/C=C2\C(=O)C(=O)c3ccccc32)cc1Br`, the displacement was -5.7%.

With `COc1cc(C=O)ccc1Oc1ccc([N+](=O)[O-])cn1`, the displacement was -2.9%.

Turning to `CC(C)C(NS(=O)(=O)c1ccc(Cl)cc1)C(=O)NN` (stereo unspecified), the displacement is 5.8%.

`COc1ccc(NC(=O)c2cnn3c(C(F)(F)F)cc(-c4ccco4)nc23)cc1OC`: the displacement is 4.5%.

In the case of `Cc1c(NS(=O)(=O)c2cccs2)c(=O)n(-c2ccccc2)n1C`, the displacement was -0.2%.

For `O=C(NCc1ccncc1)c1ccc(C#CC2(O)CCCCC2)cc1`, the displacement was -3%.

`CC(=O)Nc1ccc(NC(NC(=O)c2cccc(I)c2)C(Cl)(Cl)Cl)cc1` (stereo unspecified): the displacement stood at 7.6%.

As for `O=C(O)C1C2CCC(O2)C1C(=O)Nc1cccc(F)c1` (stereo unspecified), the displacement was -6.7%.

Turning to `CC(=O)Nc1ccc(S(=O)(=O)n2c(C)cc(C)nc2=O)cc1`, the displacement was found to be 5.8%.

Turning to `Cc1cc(NC(=O)c2ccccc2)n(-c2ccccc2)n1`, the displacement is -63.1%.

On to `COc1ccc(NC(=O)C2CC3CCC2C3)cc1OC` (stereo unspecified), for which the displacement came out at 11.8%.

In the case of `COc1ccc(C(=O)Nc2cccc(S(N)(=O)=O)c2)cc1`, the displacement was -5.8%.

With `COC(=O)CN(c1ccc(Cl)cc1Cl)S(=O)(=O)c1ccc(C)cc1`, the displacement is -7%.

Turning to `O=[N+]([O-])c1ccc(Oc2ccc(S(=O)(=O)N3CCN(c4ccccc4)CC3)cc2)cc1`, the displacement was -6.6%.

Take `COc1ccc(Br)cc1/C=C1\SC(N2CCOCC2)=NC1=O`: the displacement was found to be 8.8%.

As for `Cc1nc2ccc(NC(=S)N3CCC(C)CC3)cc2nc1C`, the displacement is -12%.

Consider `CC(C)c1ccc(NC(=O)COc2ccc3ccccc3c2)cc1`, for which the displacement came to 0.2%.

Consider `CCOC(=O)COc1ccc2c(C(F)(F)F)cc(=O)oc2c1`, for which the displacement is -3.3%.

`COC(=O)C1=C(C)N(C)C(C)=C(C(=O)OC)C1c1cccc(Cl)c1`: the displacement was -13.8%.

For `O=C(N/N=C/c1ccc(OC2CSC2)cc1)c1ccccc1`, the displacement was -3.6%.

For `CC(NC(=O)CN(c1ccc(Cl)cc1)S(C)(=O)=O)c1ccccc1` (stereo unspecified), the displacement was 8.8%.

On to `CCOC(=O)C1=C(C)N=c2s/c(=C\c3cccs3)c(=O)n2C1c1ccc(OC)cc1` (stereo unspecified), for which the displacement was 6.6%.

In the case of `COC(=O)CN1C(=O)/C(=C\c2ccc([N+](=O)[O-])cc2)SC1=S`, the displacement was found to be 5%.

In the case of `COc1cccc(NC(=O)COc2cc(C)ccc2C(C)C)c1`, the displacement came to 3%.

`CCSC1(SCC)N=C(N)C2(C#N)C(c3ccccc3)NC3=C(CCCC3)C12C#N` (stereo unspecified): the displacement was -19.7%.

Turning to `Cc1cc(C=C(C#N)C#N)c(C)n1-c1cccc(Cl)c1`, the displacement was determined as 8%.

On to `CSc1nc(-c2ccccc2)nc(N2CCN(C)CC2)c1C(C)=O`, for which the displacement was -17%.

In the case of `COC(=O)C(CC(C)C)NC(=O)CSc1nnc(C)c(=O)[nH]1` (stereo unspecified), the displacement is -3.9%.

Consider `O=C(c1ccc2c(c1)OCO2)N1CCC(Cc2ccccc2)CC1`, for which the displacement was 3%.

For `Cc1cccc(C(C)C)c1-n1nnnc1-c1ccccc1`, the displacement was found to be 4.4%.

The values above are taken from PubChem BioAssay AID1240 (Sanford-Burnham Center for Chemical Genomics, 2008).
